The full ranking holds about 110,000 compounds; the median of “z-score” is about -0.1, and the highest 2% start at about 2. The list shows a part of the results. Active and inactive are the calls of the source.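 Rule for the calls: active = z-score in the third read window above 3 or below -3; inactive = the rest.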

This assay deals with Metabotropic glutamate receptor 8 (Rattus norvegicus) (UniProt P70579). Put plainly: rat mGluR8 modulators via GIRK flux, primary screen, cell-based, thallium flux, HTS (AID 488969). The settings on record: HEK293 rat mGluR8, GIRK (G protein-gated inwardly rectifying potassium channel) thallium flux, FluoZin2; at 10 µM; stronger effect = higher value; submaximal glutamate (EC20) added with thallium.
UniProt P70579, sequence (P70579 whole entry, looked up): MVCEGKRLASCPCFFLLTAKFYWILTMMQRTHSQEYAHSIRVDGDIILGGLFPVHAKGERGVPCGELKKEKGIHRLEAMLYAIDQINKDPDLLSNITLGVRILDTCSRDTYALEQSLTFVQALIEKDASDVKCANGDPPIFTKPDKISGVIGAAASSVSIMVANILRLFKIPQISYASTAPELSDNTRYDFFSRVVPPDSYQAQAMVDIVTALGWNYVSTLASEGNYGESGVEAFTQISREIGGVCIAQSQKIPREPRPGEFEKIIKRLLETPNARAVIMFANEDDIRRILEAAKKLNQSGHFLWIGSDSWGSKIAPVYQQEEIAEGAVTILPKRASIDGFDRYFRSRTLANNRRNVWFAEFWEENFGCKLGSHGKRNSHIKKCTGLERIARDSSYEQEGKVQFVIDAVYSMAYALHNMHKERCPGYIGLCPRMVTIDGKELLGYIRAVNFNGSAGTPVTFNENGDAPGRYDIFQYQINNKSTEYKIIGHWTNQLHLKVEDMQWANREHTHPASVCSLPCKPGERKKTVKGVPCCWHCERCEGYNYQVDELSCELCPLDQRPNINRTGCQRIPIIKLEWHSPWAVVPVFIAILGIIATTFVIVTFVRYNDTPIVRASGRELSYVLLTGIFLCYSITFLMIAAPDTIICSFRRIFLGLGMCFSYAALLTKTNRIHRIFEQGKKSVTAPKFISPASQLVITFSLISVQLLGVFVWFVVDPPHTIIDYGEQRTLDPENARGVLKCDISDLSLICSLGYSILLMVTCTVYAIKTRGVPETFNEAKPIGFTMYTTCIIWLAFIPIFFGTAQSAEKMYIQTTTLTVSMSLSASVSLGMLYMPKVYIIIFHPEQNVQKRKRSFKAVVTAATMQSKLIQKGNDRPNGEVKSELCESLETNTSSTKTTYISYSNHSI
On to `Cc1ccc(-n2nnnc2Sc2nc([N+](=O)[O-])nn2C)cc1C`, for which the z-score was -0.186.

For the molecule `CCOC1(OCC)N=C(N)C2(C#N)C(c3ccc(NC(C)=O)cc3)C12C#N` (stereo not drawn), the z-score amounted to 0.154.

`CN(C)CCNCc1ccccc1OC1CCCC1` came in with a z-score of -0.633.

`O=C(COc1cccc(F)c1)N[C@@H](Cc1ccccc1)c1nc2ccccc2[nH]1`: the z-score was -0.645.

For the molecule `Cc1sc2nc(SCC(=O)Nc3c(C)n(C)n(-c4ccccc4)c3=O)n(C)c(=O)c2c1C`, the z-score is -2.68.

For `Cc1c(C(=O)NC(=S)Nc2ccccc2N2CCCC2)cccc1[N+](=O)[O-]`, the z-score was active: 3.83.

Regarding `COc1ccc(NC(=O)CCC(=O)OC(C(=O)c2ccccc2)c2ccccc2)cc1` (stereo not drawn), the z-score is -0.149.

`Cc1cc(C)n(CCc2nc(-c3cccs3)cs2)n1` yielded a z-score of 0.245.

Consider `C=CCNC(=O)/C(C#N)=C/c1cn(-c2ccccc2)nc1-c1ccc(OC)c([N+](=O)[O-])c1`, for which the z-score is -0.121.

`CN(CCC(=O)Nc1ccc(Br)cc1)Cc1ccccc1` registered a z-score of 1.33.

`COCCCNC(=O)CCN1C(=O)COc2ccccc21` displayed a z-score of 0.489.

For the molecule `CC(NC(=O)c1ccc(CS(=O)(=O)c2cccc(C(F)(F)F)c2)o1)c1ccc2c(c1)OCCO2` (stereo not drawn), the z-score is -1.17.

In the case of `O=C(NC(=S)N(CCCCO)C1CCCCC1)c1sc2ccccc2c1Cl`, the z-score was active: 9.88.

`COc1ccccc1NS(=O)(=O)c1cc(NC(=S)Nc2cc(C)cc(C)c2)ccc1Cl`: the z-score was 1.31.

Take `COc1cccc(C2CC(=O)N3CN(c4ccccc4F)CSC3=C2C#N)c1` (stereo not drawn): the z-score is -0.499.

`O=C(Nc1cccc2cccnc12)c1ccc2c(c1)OCCO2` registered a z-score of -0.538.

As for `NS(=O)(=O)c1ccc(NC(=S)Nc2nn(Cc3ccc(Cl)cc3Cl)cc2Cl)cc1`, the z-score was -0.149.

As to `COc1ccc(NC2CS(=O)(=O)CC2NCc2ccccc2)cc1` (stereo not drawn), the z-score was 0.261.

For the molecule `Cc1cccc(/C=N/n2c(-c3ccncc3)n[nH]c2=S)c1`, the z-score was -0.531.

`Cc1nn(C)c(Oc2ccc(Cl)cc2)c1C(=O)O` came in with a z-score of -0.178.

`COc1cccc(C(=O)OCc2ccccc2C#N)c1O` returned a z-score of -0.163.

With `CC1=C(C#N)C(NC(=O)c2ccco2)(C(F)(F)F)C(=O)N1` (stereo not drawn), the z-score was -0.367.

With `O=[n+]1c2c(n([O-])c3cc(F)c(N4CCCC4)cc31)CCCC2`, the z-score is active: -4.01.

`Nc1nnnn1/N=C/c1ccccc1OCc1ccc(Cl)cc1` came in with a z-score of -0.142.

`CCN(CC)S(=O)(=O)c1ccc(Cc2ncc(C(F)(F)F)cc2Cl)s1` returned a z-score of 0.166.

`Fc1ccc(C(c2nnnn2Cc2cccs2)N2CCN(c3ccccc3)CC2)cc1` (stereo not drawn) showed a z-score of -0.136.

`C=CCn1c(CCn2c3ccccc3c3ccccc32)n[nH]c1=S` displayed a z-score of 0.492.

`COCCCN1C(=O)C(=O)/C(=C(/O)c2ccc3c(c2)OCCO3)C1c1ccc(C(=O)OC)cc1` (stereo not drawn) displayed a z-score of 0.713.

Regarding `COc1cccc(-n2c(CN3CCN(c4ccccc4)CC3)nc3ccc([N+](=O)[O-])cc3c2=O)c1`, the z-score was -0.00075.

`COc1ccc(S(=O)(=O)N2CCCC(C(=O)NCc3ccccn3)C2)cc1` (stereo not drawn) registered a z-score of 0.145.

In turn, `Cn1cc(Br)c(C(=O)NNC(=O)c2ccc(Br)cc2)n1` returned a z-score of 0.0101.

Turning to `CC(Oc1ccc(Cl)cc1Cl)C(=O)NC(=S)N1CCc2ccccc21` (stereo not drawn), the z-score was active: 12.9.

In the case of `Cc1ccc(Nc2nc(N)nc(CSc3nc(C)cc(C)n3)n2)cc1`, the z-score was -1.05.

`N#C/C(=N\Nc1cc(Cl)cc(Cl)c1)c1nnc2n1CCCCC2` showed a z-score of -0.116.

`CC1CCC(C(=O)NC(C(=O)NCc2ccccn2)C(C)C)CC1` (stereo not drawn) showed a z-score of -0.93.

Turning to `CCSc1nnc(NC(=O)Cc2ccc(OC)cc2)s1`, the z-score turned out to be 0.258.

In turn, `O=c1[nH]c2ccccc2cc1-c1noc(-c2cccnc2)n1` showed a z-score of 0.246.

As to `O=C(NCc1ccco1)c1ccc(Cl)c(S(=O)(=O)N2CCOCC2)c1`, the z-score was -0.395.

As to `O=C1CC(N2CCN(c3ccccc3Cl)CC2)C(=O)N1c1cccc(F)c1` (stereo not drawn), the z-score came out at 0.412.

For the molecule `CCNC(=O)c1cc(Cl)ccc1OC`, the z-score came to 0.00234.

On to `CCC1CCc2c(sc3ncnc(N4CCOCC4)c23)C1` (stereo not drawn), for which the z-score was -0.267.

Molecule `Cc1nc(N2CCOCC2)nc(OC(C)C)c1[N+](=O)[O-]` gave a z-score of 0.117.

`COc1ccccc1CCNC(=O)CCn1c(=O)oc2ccccc21` had a z-score of 0.566.

Consider `COc1nc(Nc2ccc(-c3nc4ccccc4o3)cc2)nc(N2CCOCC2)n1`, for which the z-score amounted to 0.73.

Consider `Cn1cc(S(=O)(=O)CC(=O)N2CCCc3ccccc32)c2ccccc21`, for which the z-score was -0.0522.

Take `Cc1c(Cl)cccc1-n1c(SCC(=O)N(C)Cc2ccccc2)nnc1-c1ccncc1`: the z-score is -0.531.

For `O=C(Nc1ccc(Cl)cc1)N1CCC(c2nc(-c3cccs3)no2)CC1`, the z-score is -0.239.

The molecule `CCOCCCNC(=O)C1CCN(C(=O)Nc2ccc(Cl)cc2)CC1` registered a z-score of 0.141.

For `CN(c1ccccc1)S(=O)(=O)c1cccc(C(=O)N2CCN(c3ccccn3)CC2)c1`, the z-score was -0.41.

Take `Cc1cc(C(=O)Nc2nnc(C3CCCCC3)s2)no1`: the z-score was 0.35.

As to `CCN1CCN(S(=O)(=O)c2ccc3ccccc3c2)CC1`, the z-score is 0.0116.

In turn, `CCc1[nH]c(C)c(C(C)=O)c1C` registered a z-score of 0.445.

In turn, `CCOC(=O)C1=C(C)n2c(s/c(=C/c3cccc([N+](=O)[O-])c3)c2=O)=NC1c1ccc(O)c(OC)c1` (stereo not drawn) displayed a z-score of -0.106.

Consider `O=C(Nc1nc2ccccc2s1)c1ccc(OCC2CCCO2)cc1` (stereo not drawn), for which the z-score was -0.146.

`CS(=O)(=O)c1ccc2nc(NC(=O)c3cc4ccccc4o3)sc2c1`: the z-score was -0.192.

Turning to `CCCCOc1ccc(C(=O)NCC(=O)OC2CCOC2=O)cc1` (stereo not drawn), the z-score was -1.68.

As to `CCCn1nnnc1SCC(=O)NNC(=O)C1CCCCC1`, the z-score is 0.152.

Turning to `O=C(NCCc1ccccc1)c1noc2c1CCc1ccccc1-2`, the z-score was -1.36.

In turn, `CCCc1cc(C(=O)Nc2cc(OC)c(Cl)cc2OC)no1` yielded a z-score of 1.06.

As to `CCN(CC)c1ccc(NC(=O)c2cc(OC)cc(OC)c2)c(C)c1`, the z-score is -0.691.

`Clc1ccc2c(c1)CCc1cccnc1C2=C1CCNCC1` yielded a z-score of 2.74.

In the case of `Nc1c(C(=O)NCc2ccco2)c2nc3ccccc3nc2n1CCc1ccccc1F`, the z-score amounted to 0.34.

`O=C(NCc1ccc2c(c1)OCO2)C1CCC(CNS(=O)(=O)c2ccc(Cl)cc2)CC1` (stereo not drawn) displayed a z-score of -0.554.

The molecule `O=C(N/N=C/C=C/c1ccc([N+](=O)[O-])cc1)C1COc2ccccc2O1` (stereo not drawn) registered a z-score of -0.721.

`COc1ccc(-n2c(SCC(=O)NCCC(C)C)nc3ccsc3c2=O)cc1` registered a z-score of -0.332.

In turn, `CCCSc1ncc(Cl)c(C(=O)Nc2ccc(S(=O)(=O)N3CC(C)OC(C)C3)cc2)n1` (stereo not drawn) gave a z-score of -0.85.

As for `CCOc1ccccc1NC1=C(Cl)C(=O)N(Cc2ccccc2)C1=O`, the z-score is -0.0694.

Molecule `CCc1ccc(NC(=O)c2ccc3ncsc3c2)cc1` yielded a z-score of -0.251.

In the case of `O=S(=O)(NCC(c1cccnc1)N1CCN(Cc2ccccc2)CC1)c1ccccc1` (stereo not drawn), the z-score was determined as 0.146.

`CCOC(=O)c1cc(-c2ccccc2)sc1NC(=O)CN1C(=O)NC(CC)(c2ccc(F)cc2)C1=O` (stereo not drawn) displayed a z-score of 0.433.

As for `CSCC[C@H](NC(=O)c1cc([N+](=O)[O-])ccc1Cl)c1nc2ccccc2[nH]1`, the z-score is -0.318.

In the case of `COC(=O)c1ccc(N/C(C)=C/C(=O)c2ccc(C)o2)cc1`, the z-score is 0.165.

As to `O=C(CCOc1ccccc1)OCC(=O)c1cc2ccccc2o1`, the z-score was -0.474.

With `CCc1ccccc1NC(=O)C(CC)Sc1nc2cc3c(cc2c(=O)n1Cc1ccco1)OCO3` (stereo not drawn), the z-score was 0.292.

For `Cc1cc(NC(=O)C2CCN(S(=O)(=O)c3cccs3)CC2)no1`, the z-score worked out at 0.21.

`CC1CCN(c2ccc(C(=O)O)cc2)CC1` displayed a z-score of -0.483.

Regarding `COC(=O)n1c(=S)oc2cc(Cl)ccc21`, the z-score turned out to be 2.15.

`CCc1cccc(CC)c1NC(=O)COC(=O)CCc1cc(OC)c(OC)c(OC)c1`: the z-score was -0.0755.

The molecule `CN(C)c1ccc(NC(=O)c2cc3c(=O)n4ccccc4nc3n2C)cc1` returned a z-score of 0.349.

The molecule `Cc1ccc2nc3sc(C(=O)Nc4ccc(N5CCOCC5)cc4)c(N)c3cc2c1` showed a z-score of 0.05.

`O=C(CCCN1C(=O)/C(=C/c2ccccc2Cl)SC1=S)Nc1ccccn1`: the z-score was -0.484.

`CCOC(=O)CSC1=Nc2ccccc2C2=NC(CC(=O)NCc3cccs3)C(=O)N12` (stereo not drawn) showed a z-score of 0.253.

Regarding `COc1cc(S(=O)(=O)NC2CCCC2)ccc1Cl`, the z-score is 0.143.

Consider `CC(NC(=O)c1ccccc1)C(=O)OCC(=O)N1c2ccccc2Sc2ccccc21` (stereo not drawn), for which the z-score was -0.279.

For the molecule `O=C(c1ccccc1)N1CCCCC(S(=O)(=O)c2ccccc2)C1=O` (stereo not drawn), the z-score came out at 0.000431.

`CC1CC(C)(C)N(C(=O)CN2C(=O)c3ccccc3C2=O)c2ccccc21` (stereo not drawn) came in with a z-score of -0.0713.

Molecule `CCCCOCCCNC(=O)c1cccs1` displayed a z-score of -0.253.

Consider `O=C(c1ccco1)N1CCN(C(=O)c2ccccc2Oc2ccccc2)CC1`, for which the z-score is -0.142.

For the molecule `CCOc1cc(CNCCCN2CCOCC2)cc(Br)c1OCC(=O)Nc1cccc(C(F)(F)F)c1`, the z-score amounted to 0.933.

On to `CCn1c(CCNC(=O)c2cccs2)n[nH]c1=S`, for which the z-score is -0.239.

On to `CC(C)CNC(=S)NC(=O)c1ccc([N+](=O)[O-])cc1`, for which the z-score is active: 6.28.

For the molecule `O=C(CSc1cccc2cccnc12)OCC(=O)c1ccccc1`, the z-score amounted to 0.45.

`CCNC(=O)N1c2ccc(OC)cc2C(C)=CC1(C)C` returned a z-score of 0.559.

For `N#C/C(=C\c1ccccc1)C(=O)Nc1cc(S(=O)(=O)N2CCOCC2)ccc1N1CCCC1`, the z-score is -0.0157.

In turn, `COc1cc2c(cc1OC)/C(=C/C#N)NC(C)(C)C2` showed a z-score of -0.0215.

In the case of `COc1ccc(N2C(=O)C3C4C=CC(C5CC45)C3C2=O)c([N+](=O)[O-])c1` (stereo not drawn), the z-score was -0.379.

Take `Cc1cc(C(=S)N2CCOCC2)c(C)n1-c1ccc(Cl)cc1`: the z-score was -0.0207.

Turning to `COc1ccc(N=C2NC(=O)S/C2=C\c2ccc(N(C)C)cc2)cc1`, the z-score was -0.538.

For the molecule `CCCNS(=O)(=O)c1ccc(CCC(=O)NCc2cccnc2)cc1`, the z-score was determined as 0.0352.

In turn, `Cc1cc(=O)[nH]c(SCC(=O)NCCOc2ccccc2)n1` registered a z-score of 0.318.

For the molecule `C/C(=N\NC(=O)C(c1ccncc1)N1CCOCC1)c1ccc(Br)cc1` (stereo not drawn), the z-score was -0.164.

Take `Cc1nn(Cc2ccccc2Cl)c2sc(C(=O)NC(C)(C)C)cc12`: the z-score was -0.712.

Consider `Cc1cc2c(cc1C)NC1(C(=O)Nc3ccccc31)C1=C(CC(C)(C)CC1=O)N2` (stereo not drawn), for which the z-score came to 0.0524.

For the molecule `CC1CCCN(C(c2cccs2)c2nnnn2Cc2ccccc2)C1` (stereo not drawn), the z-score was found to be 0.0292.

Molecule `COc1cc(OC)c(NC(=O)CCc2nc(-c3ccc(C)cc3)no2)cc1Cl` showed a z-score of -0.421.

The molecule `CC(OC(=O)c1ccc(S(=O)(=O)NCc2ccco2)cc1)C(=O)Nc1ccc(Cl)cn1` (stereo not drawn) had a z-score of 0.0569.

`O=C1c2ccccc2C(=O)N1Cc1ccco1` had a z-score of -0.072.

`O=C(CNC(=O)Cc1ccccc1)NCC(=O)OCC(=O)c1cccc2ccccc12` returned a z-score of -0.402.

The values above are taken from PubChem BioAssay AID488969 (Vanderbilt High Throughput Screening Facility, 2010).
